Laboratory results as given in the supplement of paper PMC11417369.
± gives the standard deviation of the averaged measurements. The list shows a part of the results.

These sequences were tested on PfAP2-I AP2 domain 3 (GST-tagged) (assay: gcPBM binding intensity (ln(normalized median fluorescence intensity)); higher = stronger DNA binding).
Outline: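 After 1 h on an Agilent 4 × 180k array of primer-extended double-stranded 36-bp intergenic genomic probes and negative controls, bound GST-tagged P. falciparum DNA-binding domains were detected with Alexa488 anti-GST antibody and scanned at 488 nm. The domains had been expressed in E. coli, and binding took place in 1× PBS with 1% milk, 0.2 mg/ml BSA, 0.5% salmon testes DNA and 0.03% Triton X-100. Binding intensity is the highest Masliner-normalised natural-log median intensity across replicate spots of either probe orientation.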

Sequence | gcPBM binding intensity (ln)
AGAAGCATACATCAAGCACACACACCCACACCCACA [CACACA_site8014] | 8.18 ± 0.44
ACACGTTTATATAAAAAATTAAAATTTTTCTTATTT [CACACA_negctrl_site1523] | 7.95 ± 0.32
ATAACAAAATAAAACACACACACAAATGTACAGATA [CACACA_site5358] | 7.97 ± 0.53
TATTCATGTTTAAAAAGTACATATTATGGTAACATT [XGTACX_site4533] | 7.94 ± 0.48
ATTTTTGTGTTTACACGTACGTGTAAATTATTTTTC [XGTACX_site1869] | 8.4 ± 0.76
CATAATTTACATAAAAGTACATATATATTAATGACG [XGTACX_site6247] | 7.79 ± 0.33
TTAAATAAAATTTATTGTACATAAAATTAAATATAG [XGTACX_site3039] | 7.875 ± 0.078
AATATTTAAGTACTGGTGCGTGTATATAATGATTAA [GTGCAC_site9633] | 8.65 ± 0.27
AAACTTGTAAGAAACACACACACACGCATATAAATA [CACACA_site6518] | 8.02 ± 0.56
ATAAATAAAATATGCACACAAATATAGGAAACAACA [CACACA_site2561] | 8.81 ± 0.33
GTAAAAAAAGAGCACACACACAAAAACACCCACAAA [CACACA_site1292] | 8.755 ± 0.049
TTTATTCCCGCATATAGTACATATACCATTTAATGT [XGTACX_site7011] | 8.06 ± 0.84
ATATAATATGGTATTACACACTGTTATAAGTATGGC [CACACA_site2094] | 7.8 ± 0.5
CATAAATACACTGTAGCGCACACGGCCAAAAAAAAA [CACACA_site8537] | 9.79 ± 0.4
TGTATATACATAAAGTGTACGTATATTTATATATAT [XGTACX_site4320] | 8.25 ± 0.3
TATTTTTATTTTACATTATTTGTTTATAATTCTTAA [CACACA_negctrl_site1358] | 7.7 ± 0.46
AATAAATAAATAAATATATATATATATATATATATA [CACACA_negctrl_site708] | 9.45 ± 0.86
ATATATATATATAATGCACACATTATAAATTATGTA [CACACA_site5802] | 11.1 ± 0.26
AAAAAAAAAAAAAACACACAAACAAATGAATAAATA [CACACA_site3300] | 8.15 ± 0.62
TTTTTTTTTTATTCATGTACGTATTTAAATAATTCT [XGTACX_site2651] | 7.92 ± 0.55
GAGTTTTAATGTAATAGTACTTTAATTATTATATAT [XGTACX_site4527] | 7.66 ± 0.28
ATCTTTTATATATTCACACATAAAATTATACAGATA [CACACA_site5277] | 7.99 ± 0.52
GATCGCATGAAATGAACACACATAAAAAAAATATAC [CACACA_site4087] | 8.07 ± 0.52
AAAAAAAAAATATACACACACACATACCCATAAATA [CACACA_site5981] | 7.96 ± 0.44
